Consider 85 compounds from PubChem BioAssay (NCI).

Molecules are shown by their SMILES. Values joined by “and” are separate entries in the source; they are usually repeats but may differ in a detail not shown here. Equal values may be shown once.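 Where inhibition never reached the appropriate level, the endpoint shown equals the highest concentration tested. Otherwise, values were interpolated linearly from a five-concentration, 48-hour dose response in 96-well plates. GI50 = concentration required for 50% inhibition of growth. TGI: total growth inhibition.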

The experiment relates to NCI-H322M lung. Put plainly: NCI tumour cell line growth inhibition, 48 h.
In the case of `CC(=O)NC(CCCNC(=O)N(C)N=O)C(=O)NCc1ccccc1` (configuration not stated), the TGI was over 100 µM.
On to `CCOC(=O)C(=[N+]=[N-])C(=O)CSC#N`, for which the TGI is over 100 µM.
As to `CCOC(=O)Cc1csc(NC(=O)C(OC(=O)c2ccc(Cl)cc2)c2ccccc2)n1` (configuration not stated), the GI50 is 70.5 µM and the TGI was over 100 µM.
Consider `Cn1c(-c2ccccc2)cc(-c2ccc3c(c2)OCO3)c1-c1ccsc1`, for which the TGI is over 100 µM.
As to `COc1cccc(/C=N\NC(=O)c2ccncc2)c1O`, the GI50 is 5.14 µM and the TGI was over 100 µM.
In turn, `CN(C)c1ccc(N=C2N=C(Nc3ccccc3)C(=Nc3ccccc3)S2)cc1` returned a TGI of over 100 µM.
On the same count and under the same terms, the value for `N#C/C(c1nc2ccccc2[nH]1)=c1\s/c(=C/c2ccccc2)c(=O)n1-c1ccccc1` was over 100 µM.
Regarding `CN1CCN(C)C1c1ccc(C2N(C)CCN2C)cc1`, the GI50 is over 100 µM and the TGI is over 100 µM.
`COc1ccc(OC2(c3cc(OC)ccc3OC)OC(=O)c3ccccc32)cc1` (configuration not stated) came in with a TGI of over 100 µM.
`NC(=O)c1ncn(C2C=CC(CP(=O)(O)O)C2)c1N` (configuration not stated) returned a TGI of over 100 µM.
On the same count and under the same terms, the value for `Cc1cccc(N=Nc2c(C)nn(C(=O)CC(=O)Nc3ccc(Cl)cc3)c2C)c1` was over 100 µM.
For `CCOC(=O)c1ccc(N2NC(=O)/C(=C/c3ccc([N+](=O)[O-])o3)C2=O)cc1`, the GI50 is over 43.7 µM and the TGI was over 64 µM.
As for `N#Cc1ccc(C2ON=C(c3ccccc3)N2C23CC4CC(CC(C4)C2)C3)cc1` (configuration not stated), the TGI is over 10 µM.
In turn, `CC(=O)OC(C(=O)O)C(OC(C)=O)C(OC(C)=O)C(OC(C)=O)C(=O)O` (configuration not stated) came in with a TGI of over 100 µM.
Regarding `COc1cc(CSc2nc3ccc(Cl)cc3c(=O)n2Cc2ccccc2)cc(OC)c1OC`, the GI50 was 10 µM and the TGI is over 100 µM.
Compound `CCOC(=O)c1c(CN2CCNCC2)nc2ccc(Cl)cc2c1-c1ccccc1` showed a TGI of 29.8 µM.
`O=C(CCN1CCCCC1)Nc1ccc2c(c1)C(=O)c1ccc(NC(=O)CCN3CCCCC3)cc1C2=O` displayed a TGI of 11.6 µM.
`Cc1cccc2c(N)c3cccc(C(=O)NCC[N+](C)(C)Cc4ccccc4[N+](=O)[O-])c3nc12` returned a TGI of over 59.2 µM.
The same measure, in the same setting: the value for `CCCC(=O)OCC1OC(n2cc(F)c(=O)[nH]c2=O)C(F)C1O` (configuration not stated) was over 100 µM; that for `O=S(Cc1ccccc1)c1ccccc1Cn1cccc1` (configuration not stated) was over 100 µM.
For the compound `NC(=O)c1cn(C2CC(O)C(CO)O2)c2ncnc(N)c12` (configuration not stated), the GI50 was 2.3 µM and the TGI was determined as 41.6 µM.
The like results for `Cc1cc(-c2nc3sc(C)cn3c2/C=N/N=C(N)N)c(C)s1` were, in that order, 5.74 µM and 16.7 µM.
`Cc1cc(C)c(/C=C2\C(=O)Nc3ccccc32)[nH]1`: the TGI was over 100 µM.
On to `O=C(NC(CS)C(=O)O)c1c2ccccc2nc2ccccc12` (configuration not stated), for which the TGI was over 100 µM.
Compound `O=C(O)c1cnc2c(ccc3[nH]cccc32)c1=O` came in with a TGI of over 100 µM.
Turning to `CCCCCSc1ccc2nc(NC(=O)OCC)sc2c1`, the GI50 is 5.1 µM and the TGI was over 100 µM.
In the case of `O=C1c2cc3c(cc2CC12Cc1ccccc1C2)CCC3`, the TGI was 40.6 µM.
With `N=S(c1ccccc1[N+](=O)[O-])c1ccccc1[N+](=O)[O-]`, the GI50 is 6.73 µM and 2.9 µM; the TGI was 13.2 µM and 8.29 µM.
As for `COc1cc(-n2cc(-c3ccc(Cl)cc3)n(-c3ccccc3)c2=O)cc(OC)c1OC`, the GI50 was 48.7 µM and the TGI is over 100 µM.
With `CCOC(=O)c1c(NC(=S)Nc2ccccc2)sc2c1CCN(C)C2`, the TGI was over 100 µM.
Take `CCc1cccc(C(C)C)c1NC(=O)/C(=N\NC(N)=O)C(C(=O)OC)c1cnc2ccccc2n1` (configuration not stated): the TGI was over 100 µM.
In turn, `Cc1nc2ccccc2c(=O)n1/N=C(\N=Nc1ccccc1)c1ccccc1Cl` had a TGI of over 100 µM.
On the same count and under the same terms, the value for `O=C1OC(c2ccc(O)cc2)(c2ccc(O)cc2)c2ccc(Cl)c3cccc1c23` (tested in a mixture with another compound) was 30.5 µM; that for `O=C1c2ccccc2CC12Cc1cc3c(cc1C2)CCC3` was over 100 µM.
For `CC1OC(n2cc(F)c(=O)[nH]c2=O)CCC1=O` (configuration not stated), the TGI was over 100 µM.
For the compound `CCOc1ccccc1/C=N\N=C(N/N=C/c1ccccc1OCC)N/N=C/c1ccccc1OCC`, the GI50 was 2.94 µM and the TGI was over 100 µM.
The compound `CSc1nc(-c2ccccc2)[nH]c(=O)n1` returned a TGI of over 100 µM.
With `Clc1cc(Br)ccc1-c1ccc(CNCC2CCNCC2)o1`, the GI50 is 2.03 µM and the TGI is 4.49 µM.
For the compound `Cc1ncc(C(=O)Nc2ccc(CN3CCN(C)CC3)c(C(F)(F)F)c2)cc1C#Cc1cnc(N)c2ccc(C#N)cc12`, the GI50 is 0.0579 µM and the TGI is 13.4 µM.
In the case of `CC(C)CNC1=NCC(C)S1` (configuration not stated), the TGI is over 100 µM.
For the compound `COc1ccc2cc3c4cc(OC)c(OC)cc4ccn3c2c1`, the TGI was over 100 µM.
`CCOC(=O)c1cc(=O)c2cccc3c2n1CCS3`: the TGI is over 100 µM.
`O=S1Nc2cccc(C(F)(F)F)c2S1` (configuration not stated) came in with a TGI of over 100 µM.
Compound `COc1cc([C@@H]2c3cc4c(cc3[C@@H](NCc3ccccc3F)C3COC(=O)[C@@H]32)OCO4)cc(OC)c1O` (some centres not stated) had a TGI of over 100 µM.
Consider `O=C(/C=C/c1ccc([N+](=O)[O-])cc1)N1CCN(CCOC(c2ccc(F)cc2)c2ccc(F)cc2)CC1`, for which the TGI is over 100 µM.
As to `Cc1ccc(S(=O)(=O)N(CCN)c2cc3c4c(c2)Oc2cccc5c2C4c2c(cccc2O3)O5)cc1`, the TGI was over 100 µM.
Compound `COc1cc(OCCN(C)C)c2[nH]c(C(=O)N3CC(CCl)c4c3cc(N)c3ccccc43)cc2c1` (configuration not stated) displayed a TGI of 1.39 µM.
Compound `O=C(N/C(=C\c1ccccc1)c1nc2ccccc2c(=O)o1)c1ccccc1` yielded a TGI of over 100 µM.
Turning to `c1cc(OCCN2CCCC2)ccc1CNc1ccc2nc(CCC3CCCCC3)[nH]c2c1`, the GI50 was 2.48 µM and the TGI was found to be 7.4 µM.
Consider `CC(C)(C)c1cc(C[P+](c2ccccc2)(c2ccccc2)c2ccccc2)cc(C(C)(C)C)c1O`, for which the GI50 was 1.92 µM and the TGI worked out at 8.96 µM.
Consider `S=C(NCCc1ccccn1)N/N=C(\c1ccccc1)c1ccccn1`, for which the TGI is over 100 µM.
Take `Cc1csc2nc(-c3cccc([N+](=O)[O-])c3)c(/C=N/N=C(N)N)n12`: the TGI came out at 3.08 µM.
`COc1cccc(C2=NC(C(C)C)CO2)c1OC` (configuration not stated): the TGI is over 100 µM.
Compound `O=C1N[C@H]2C(=O)c3c(Br)sc(Br)c3[C@H]2O1` had a TGI of 28.3 µM.
For the compound `CC[C@@]1(O)CC(OC2CC(N3CCOCC3)C(O)C(C)O2)c2c(O)c3c(c(O)c2[C@H]1O)C(=O)c1cccc(O)c1C3=O` (some centres not stated), the TGI is 3.36 µM and 3.9 µM.
With `Oc1ccc(N=Nc2ccc(Br)cc2)c(O)c1`, the GI50 was 7.04 µM and the TGI worked out at 44 µM.
Turning to `COc1ccc(Nc2ncc(I)c(NCCCNC(=O)C3CCC3)n2)cc1`, the GI50 is 9.76 µM and the TGI turned out to be 40.7 µM.
For `Cn1c(=O)c2c(nc3n2CCCC(=O)N3CCCCl)n(C)c1=O`, the TGI was over 100 µM.
Regarding `Cc1ccc(S(=O)(=O)C2=Cc3ccccc3C2(O)c2ccccc2)cc1` (configuration not stated), the TGI stood at 67.5 µM.
With `O=C(O)c1cc2ccccc2c(N=Nc2ccc(S(=O)(=O)Nc3ccccn3)cc2)c1O`, the TGI was over 100 µM.
Consider `N#Cc1c(-c2ccc([N+](=O)[O-])cc2)c2c([nH]c1=O)-c1ccccc1CCC2`, for which the TGI was over 100 µM.
On the same count and under the same terms, the value for `COC(=O)c1c(O)ccc2c1c1c(n2CCc2ccc(OC)c(OC)c2)C(=O)c2ccccc2C1=O` was 34 µM.
Consider `CCOC(=O)C1=C(C(=O)OCC)SC2(S1)C(C(=O)OCC)=C(C(=O)OCC)Sc1c2ssc1=O`, for which the TGI was 23.2 µM.
In turn, `COc1cc(/C=C2\CCC(C)C3=C2N=c2s/c(=C/c4ccc(Cl)cc4)c(=O)n2C3c2cc(OC)c(OC)c(OC)c2)cc(OC)c1OC` (configuration not stated) came in with a TGI of over 100 µM.
`O=CN/C=C/c1ccccc1` registered a TGI of over 100 µM.
With `O=S(=O)(c1ccccc1)C1CC(c2nc3ccccc3[nH]2)=NO1` (configuration not stated), the TGI is over 100 µM.
On to `FC(F)(F)c1ccc2c(-c3cc[nH]c3)ccnc2c1`, for which the TGI turned out to be 61.7 µM.
For `ClCc1ccccc1Cn1cnc2nc(Cl)nc(Cl)c21`, the GI50 is 5.57 µM and the TGI is 19.7 µM.
`Nc1nc(Cl)c(N)c(NCC2(CO)CCC(OCc3ccccc3)C2)n1` (configuration not stated): the TGI is over 100 µM.
The compound `C[N+]1(C(CO)Cc2c[nH]c3ccccc23)Cc2ccccc2C1` (configuration not stated) had a TGI of over 100 µM.
Turning to `O=C1CN=C(c2ccc[nH]2)c2cc(Cl)ccc2N1`, the GI50 was over 100 µM and the TGI was over 100 µM.
For `N#CC1(CCCI)CCCC1`, the TGI turned out to be 26.4 µM.
Take `CCCCCN(CCCCC)CCC[C@@H](C)[C@H]1CC[C@H]2[C@@H]3[C@H](OCCCN)C[C@@H]4C[C@H](OCCCN)CC[C@]4(C)[C@H]3C[C@H](OCCCN)[C@]12C`: the GI50 was 3.09 µM and the TGI stood at 13.1 µM.
`CC(C(=O)NCNC(=O)c1ccccc1)C(=O)Nc1ccccc1` (configuration not stated) gave a TGI of over 100 µM.
As for `Cc1nnn(C)c1-c1cnc2c3ccc(C(C)(C)O)cc3n([C@H](c3ccccc3)C3CCOCC3)c2c1`, the GI50 is 0.0588 µM and the TGI is over 100 µM.
As for `CCn1nc(C2CCN(C(=O)CCO)CC2)nc1-c1cnc(N)c(-c2nnc(C(C)(C)C)o2)n1`, the GI50 is 2.51 µM and the TGI was over 100 µM.
Compound `Cc1nc2ccc(Cl)cc2c2c1CCN2c1ccc(F)cc1` had a TGI of over 100 µM.
Consider `CCOC(=O)C1CC(=O)C=C2CCCCC21` (configuration not stated), for which the TGI was over 100 µM.
Take `c1cc[c]([Ge]([O]c2cccc3cccnc23)([c]2ccccc2)[c]2ccccc2)cc1`: the GI50 was 6.73 µM and the TGI came to 19.7 µM.
The compound `Fc1cc2nc3n(c2cc1F)C(c1c(F)cccc1F)SC3` (configuration not stated) had a TGI of over 100 µM.
In the case of `N#Cc1c(N)nc2c(c1-c1ccc(Cl)cc1)COc1ccc(F)cc1-2`, the GI50 was 30.2 µM and the TGI is over 100 µM.
The compound `CC(C)C1=Cc2ccc3c(c2C(=O)C1=O)CCCC3` came in with a TGI of 24.8 µM.
Take `OCC1OC(N2C=C(c3nc4ccccc4s3)C3C=CC=CC32)C(O)C(O)C1O` (configuration not stated): the GI50 is 17 µM and the TGI is over 50 µM.
The like results for `COc1cccc(S(=O)(=O)NC2=NCCN2C(=S)SN2CCn3c2nsc3=S)c1` were, in that order, 97.1 µM and over 100 µM.
On to `CC(C)CCN(CCC(C)C)CC(=O)Nc1ccc(S(=O)(=O)c2ccc(NC(=O)CN(CCC(C)C)CCC(C)C)cc2)cc1`, for which the GI50 is 6.21 µM and the TGI is 20.7 µM.
